Source: the RNAGym collection of RNA variant scans (doi:10.1073/pnas.2313332121)
This sample is rich in variants without activity.

B1: TPR 5TU (parent)
chain: GGAUCUUCUCGAUCUAACAAAAAAGACAAAUCUGCCACAAAGCUUGAGAGCAUCUUCGGAUGCAGAGGCGGCAGCCUUCGGUGGCGCGAUAGCGCCAACGUUCUCAACUAUGACACGCAAAACGCGUGCUCCGUUGAAUGGAGUUUAUCAUG

Variants of: B1
Test: polymerase ribozyme fitness, log enrichment relative to wild type (log ratio); higher = more active; in vitro selection for triplet polymerase activity
Procedure, shortened: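 For each subunit of a heterodimeric triplet polymerase ribozyme, a mutant library was built by PCR and transcribed, then taken through a single in vitro selection round in triplicate. Selection involved annealing to a biotinylated primer, the partner subunit and triplets, incubation frozen at −7 °C, gel excision of extended constructs, capture on streptavidin beads and RT-PCR. Genotypes were retained after Illumina sequencing of inputs and outputs only with ≥10 input reads and ≥1 read in each output. Fitness is defined as the logarithm of a genotype's enrichment relative to wild-type enrichment, using inverse-variance-weighted averages across replicates, with the logarithm taken to base 2.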

Polymerase ribozyme fitness (log ratio), -3.62:
U6G G68A

Polymerase ribozyme fitness (log ratio), -4.19:
U6G G59A G92A C95A C105U

Polymerase ribozyme fitness (log ratio), 0.358:
U6G G59C

Polymerase ribozyme fitness (log ratio), -3.18:
U6G C93G

Polymerase ribozyme fitness (log ratio), -3.7:
U6G G50U C85U C116U G152U

Polymerase ribozyme fitness (log ratio), -1.61:
U6G U31C U55A C95U A98G G141C

Polymerase ribozyme fitness (log ratio), -0.579:
U6G C87U

Polymerase ribozyme fitness (log ratio), 0.0133:
U6G G50U C95U

Polymerase ribozyme fitness (log ratio), -3.78:
U7A A23C C36A U56A A91U C132G

Polymerase ribozyme fitness (log ratio), ≤ -4.2:
U6G C85U C103A C131G G136U
U6G G11A A19C A21C A24G C36G U56A G88C A138G
U6G G11A A24U U53A G92U C93G C108U A115U
U6G G11A A30C C76G U127A G133A
U6G G11A G48U G50U A66G U90A G100U U102A A122C
U6G G11U A19C G50A C114U G141A
U6G G34C A39U C85G C105A A113U
U6G G34U G84U U101G U151C
U6G G42A C69U U90G C95G
U6G G42C U61C C93U U111G U148A C149A
U6G G46A A49C G58A A97U
U6G G48C A52G C96A A121U G140A
U6G G48C A89C A91G A107C
U6G G50C U56A G65A A73C C96U U139C
U6G G58A C87G G152U
U6G G59A C85G C96A U134A G143U
U6G G59C C85U G92U U127A
U6G G59U U61A C72U A89G U90A C93G C108U A122U
U6G G62U G80C C87U A89U G126U
U6G U7A C14G G50U C87A C99U U144A
U6G U7A U53A C105G
U6G U9A A28C C35U C57A C96G A119U
U6G U9C U13A G94C
U6G U13A G84A G143A U148G
U6G U13G U53A G83A A97U A106U C108G
U6G U33C U77C G80C C85G G86A G112U A120G U151C
U6G U33G C35U A52C C57U C93G A113U U144C
U6G U53A C125G C132U U148C
U6G U53G A66U C93G
U6G U56A G70C C85G A107U U144G
U6G U61A G71A G83A A107U C116A
U6G U90G
U7A A16G A17C G59C A110G
U7A A16U A29U U31C C87A U145G
U7A A16U C43G G86U A97U U145A
U7A A17G C51U A52G A73U C75U A97G A98U U139C G140C
U7A A17G G65A C93U C108G G117C A150G
U7A A20G A40C U61A C79G C116G U139C
U7A A20G G50C A73G
U7A A21G A22U G59U G86A A89U
U7A A21G G42A G70U C85U A115C
U7A A22C U61A G68A G94U A113G G117U G126A U151A
U7A A22G U77C G124U C132A
U7A A22U A30U C51U C85G
U7A A22U G80A A120G C132U G136C
U7A A23G A29C A49C A73G C87G C118G C125A G128A
U7A A23G G48A G81A G84U A115C C116G G141U
U7A A23U A29G G50C C54A G88A A138U
U7A A24C A47C U109C A120U
U7A A24U A52U C87A G126A C131U G136A A147U C149U
U7A A24U G83C A122U U135C
U7A A26G A47G A66U G71C C131U U139G
U7A A26U G42U C54A C57U A106U
U7A A28G A40U A49C G50C C87A U144G
U7A A28U A40U U55A C57A C76U U78G C96G C123G
U7A A28U A40U U55A C57A C76U U78G C96G C123G U151C
U7A A28U G46C G50A C95G C103G C129A U144C
U7A A28U G67C C87U C96G C123A
U7A A29C A49G U55G U77C G83C G124U
U7A A29C C85U C87U G143C A150G
U7A A29U A49C U53A G84C U102C
U7A A30C G48A G70C C72A A89U C96U
U7A A39U G50C G86A C93G
U7A A47C A52U C85A A98U G126A
U7A A47C C93U C96A A106G G140A
U7A A49C A66G U148A
U7A A49U A52C G83U A91U G136A
U7A A60C G74A C85A G86U A142U

Polymerase ribozyme fitness (log ratio), 0.0628:
U6G G94C C123A

Polymerase ribozyme fitness (log ratio), -1.38:
U6G U31G U61A C95A G136A

Polymerase ribozyme fitness (log ratio), -2.26:
U6G U13G C57G

Polymerase ribozyme fitness (log ratio), -2.15:
U6G G58C C131A

Polymerase ribozyme fitness (log ratio), -4.11:
U6G G88A

Polymerase ribozyme fitness (log ratio), -0.705:
U6G C95U C96G
